Measurements published in US20030119903A1, “Use of trimebutine for treating pain” (priority 1999, published 2003).

molecular target: site 2 of the sodium channel; format: binding; conditions: rat cortical synaptosomes, 10 nM [3H]-batrachotoxin, 90 min 25° C.; read-out: Ki, displacement of [3H]-batrachotoxin

In order of rising Ki:
1. CC[C@](COC(=O)c1cc(OC)c(OC)c(OC)c1)(NC)c1ccccc1 [(S)-Nor-TMB, (S)-N-desmethyl trimebutine]  800 ± 40 nM
2. CC[C@@](COC(=O)c1cc(OC)c(OC)c(OC)c1)(NC)c1ccccc1 [(R)-Nor-TMB, (R) N-desmethyl trimebutine]  1260 ± 70 nM
3. CCC(COC(=O)c1cc(OC)c(OC)c(OC)c1)(c1ccccc1)N(C)C.O=C(O)/C=C\C(=O)O (racemic) [trimebutine, 2-dimethylamino-2-phenylbutyl 3,4,5-trimethoxybenzoate hydrogen maleate]  2660 ± 150 nM
4. CC[C@](COC(=O)c1cc(OC)c(OC)c(OC)c1)(c1ccccc1)N(C)C [(R)-Trimebutine]  2890 ± 880 nM
5. CC[C@@](COC(=O)c1cc(OC)c(OC)c(OC)c1)(c1ccccc1)N(C)C [(S)-Trimebutine]  3310 ± 360 nM
6. CCCCN1CCCCC1C(=O)Nc1c(C)cccc1C (stereo not drawn) [bupivacaine]  7140 ± 960 nM
